Assay results published in PubChem BioAssay AID894 (National Center for Advancing Translational Sciences (NCATS), 2007).
Out of some 150,000 compounds screened, about 6,500 (4.3%) were called active. Inconclusive means that the source gave no clear call. Such entries were picked first, then a sample of the others. The call rests on the fitted dose curve; in most records, active means well fitted inhibition curve with a large enough effect (not every such curve was filed as active); inconclusive means small, poorly fitted or top-dose-only effect, or another doubt; inactive means no such curve, though single readings can be large or run the other way. No potency is given beside an inconclusive call; the fits are too rough.

Molecular target: 15-hydroxyprostaglandin dehydrogenase [NAD(+)] (Homo sapiens) (UniProt P15428)
Experiment: qHTS Assay for Inhibitors of HPGD (15-Hydroxyprostaglandin Dehydrogenase)
Conditions: purified HPGD, NADH fluorescence kinetic, PGE2 substrate; activity change, negative = inhibition: hits give low values
Method in brief: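 20 nM HPGD preincubated 15 min at room temperature with compound in 50 mM Tris-HCl pH 8, 0.01% Tween 20. Started with 1 mM NAD+ and 30 uM prostaglandin E2; NADH fluorescence (360/450 nm) read 5 times over 30-s intervals, last minus first.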
On the % scale 0 is the no-effect control and ±100 the full control effect; potency means the concentration at half of the fitted maximal effect; tags describe the fitted curve by direction and shape.

Chain of UniProt P15428 (P15428 whole entry, looked up): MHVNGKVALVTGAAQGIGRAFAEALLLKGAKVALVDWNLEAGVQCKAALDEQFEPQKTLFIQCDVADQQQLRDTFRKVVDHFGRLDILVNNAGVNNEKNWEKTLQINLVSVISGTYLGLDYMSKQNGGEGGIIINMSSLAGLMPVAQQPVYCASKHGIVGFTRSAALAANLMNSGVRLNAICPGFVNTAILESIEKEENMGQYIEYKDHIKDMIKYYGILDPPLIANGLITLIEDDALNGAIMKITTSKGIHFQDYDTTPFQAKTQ

| SMILES | Potency | activity change, negative = inhibition |
| --- | --- | --- |
| O=C(Nc1nc2ccccc2n1CCN1CCOCC1)c1cn(-c2ccccc2)nc1-c1ccccc1 | inconclusive [inhibitor, partial curve] | – |
| Cc1nc(SCC(=O)NCc2ccco2)nc(C)c1C | active: 7.94 µM | – |
| COc1ccc(-c2nc(C#N)c(NCc3ccccc3Cl)o2)cc1OC | inconclusive [inhibitor, partial curve] | – |
| COC(=O)c1sc(=S)n(-c2cc(F)ccc2F)c1N | active: 28.2 µM | – |
| COc1cc(-c2nc3c(c(C)nn3-c3ccccc3)c3cc(OC)c(OC)cc23)ccc1O | inconclusive [inhibitor, partial curve] | – |
| CCOc1ccccc1NC(=O)Cn1cnc2c(cnn2-c2ccc(C)c(C)c2)c1=O | inconclusive [inhibitor, partial curve] | – |
| N#Cc1c(N)nc(N2CCCC2)c(C#N)c1-c1ccc(Cl)cc1 | inconclusive [inhibitor, partial curve] | – |
| O=C(CSc1oc(-c2cccs2)nc1S(=O)(=O)c1ccccc1)NC1CCCCC1 | inconclusive [inhibitor, partial curve] | – |
| Cc1ccc(N(C(=O)C2CCCO2)C2C=CS(=O)(=O)C2)cc1Cl (stereo not given) | – | inactive: 1.54% |
| CCCC(=O)c1cc(-c2nc3ccccc3n2C)n(C)c1 | inconclusive [inhibitor, partial curve] | – |
| O=C(COC(=O)c1cccs1)NCCC1=CCCCC1 | active: 17.8 µM | – |
| c1nc(N2CCOCC2)c2c3c(sc2n1)CCCC3 | – | inactive: -6.68% |
| CCOC(=O)c1oc2nc(C(C)C)c3c(c2c1N)CCC3 | inconclusive [inhibitor, partial curve] | – |
| CN(C)c1ccc(/C=N/NC(=S)NCc2ccco2)cc1 | inconclusive [inhibitor, partial curve] | – |
| Cc1cccc(N2CSC3=C(C#N)C(c4ccc(C)o4)CC(=O)N3C2)c1 (stereo not given) | active: 8.91 µM | – |
| CCOC(=O)c1c(-c2ccccc2)n(C)c2ccc(O)cc12 | inconclusive [inhibitor, partial curve] | – |
| COc1ccc(OC)c(/C=N/NC(=O)c2[nH]nc3c2CCc2ccccc2-3)c1 | inconclusive [inhibitor, partial curve] | – |
| Cc1ccc(NC(=O)Cn2c(=O)oc3cc(S(=O)(=O)N4CCC(C)CC4)ccc32)cc1C | – | inactive: -13.4% |
| NC(=O)SCC(=O)Nc1ccc(Cl)cc1 | active: 4.47 µM | – |
| O=C(Nc1ccc(O)c2c(=O)cc(-c3ccccc3Cl)oc12)c1ccc(Br)cc1 | active: 1.12 µM | – |
